# Reference: the supplement of paper PMC11417369
# This is one part of the list.
# Tested on: PfHDP1 homeodomain (GST-tagged)
# Experiment: gcPBM binding intensity (ln(normalized median fluorescence intensity)); higher = stronger DNA binding
# How it was run: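 Binding intensity is the highest Masliner-normalised natural-log median intensity over replicate spots in either probe orientation. To obtain it, GST-tagged P. falciparum DNA-binding domains made in E. coli were incubated for 1 h on an Agilent 4 × 180k array of primer-extended double-stranded 36-bp intergenic genomic probes plus negative controls. Detection used Alexa488 anti-GST antibody with scanning at 488 nm.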
row,Sequence,gcPBM binding intensity (ln)
1,ATTGACGTCATATAAACATGCACATTTTGGATGTTT [TGCATGCA_site985],7.27
2,TAAAATAATAAAACAACACACAAATAGTTAAAATAG [CACACA_site1680],6.68
3,TAAATCATTTATTAAGTGCAATATTCTTTTTGAGAT,8.51
4,TGTTTTCCCTTTAGTGTGCACGTATTTCTATTAACA [GTGCAC_site9847],9.8
5,TAAAAACATTTAAATTGTACGGAAATAAAAATTTTT [XGTACX_site8225],6.47
6,ATATAAATATTAAATACACACATTTTTGATTAGGTT [CACACA_site7461],6.38
7,AAAATGATAATACCAAGTACACATATGAAAAATACA [XGTACX_site6763],7.05
8,ATATAGAATATATTAACATGCAATAAGTAAAGGGGG [TGCATGCA_site1022],7.05
9,ACAATGAAATATTCATGTACATATAAATAATAGTGT [XGTACX_site3762],6.41
10,CACTTCATAAAAATTGCACACATATAATAATGTACA [CACACA_site8692],10.1
11,ATATAATTTGATGGTTAACACACATATATATTATAT [CACACA_site8775],6.39
12,TCATATAATCAAATATGTACATATTTTCAATTGAAT [XGTACX_site6831],6.7
13,ATATTTATTTAATGAACACACGATATATTATTTTAT [CACACA_site1602],6.41
14,TTATTTATTTTTTATACACACAATTATCTTTTTAAG [CACACA_site6162],6.86
15,AAAATAGAGTTGAATGCACACATACAAATTTTTAGG [CACACA_site9188],8.74
16,TTATTAAATTCTTTATTTAGCATATACAATAAAAGA [CACACA_negctrl_site1420],6.23
17,ATAAATAATTTATTCACACATACAAAAGTTTACAAA [CACACA_site5666],6.55
18,TCTTATATAACGAAAGTAAAATAATATGCTAAGCAT [CACACA_negctrl_site668],6.23
19,TTTTTTTTTTTTGAAGTGCATGTTACGATGAACAAA [GTGCAC_site9451],7.25

row,Sequence,gcPBM binding intensity (ln)
1,CTAAAAAGAGAAGTGTGTCCTCAAATTAATATAATT [XGTACX_site1057],6.58
2,GAAAAAAAAAAAAATACACACAAATTGGTATAGAAT [CACACA_site380],6.48
3,AATGAATATTAAAGGAGTACACATAATAAGTAAGAA [XGTACX_site7354],7.53
4,TATATAAAAATATACACACACAAATGTATTTATATA [CACACA_site4284],6.37
5,AATAGGATATGGTACATTTTTTGTATACTTTTTGTT [CACACA_negctrl_site1804],6.07
6,AAACAAGTAATTGTTATTATTATTATATTATTATTA [CACACA_negctrl_site402],6.12
7,ATAAATTCTATGTATACACACATATATAATATATAT [CACACA_site2689],7.14
8,AAATATTATGTACGCACACACATTTTTGATATATAA [CACACA_site7755],7.04
9,CGCAACGTGAAAATACGTACACATACATTTTTATAT [XGTACX_site330],6.25
10,GTTATTAAATAATTCACACACATATATATATATATA [CACACA_site2260],9.39
11,TATGGAACACACCTTAATATGTGATAAAATATGATA [GTGCAC_negctrl_site718],6.56
12,TATTCCTATATACAGCGTACAAAAAATAATATGTAT [XGTACX_site8112],6.62
13,GGGGGAAGGTTGAAGGTGCTTGATGGAGAAAAATAT,7.79
14,TTAATACATACATTCACACACACTAAATGTATATTT [CACACA_site4105],6.76
15,TAATCGTTTTATAAATGTACAAAATTGTTATGTTAT [XGTACX_site5147],6.37
16,AAAAAATAGAATATGGGTACTAAAAAGATACAAACA [XGTACX_site4464],6.84
17,AAATTCGTAATAATGTGTACATAACTATACATAATT [XGTACX_site1717],6.34
18,ATTTATATGAAAATATGTACTTATATAAATTTATTT [XGTACX_site53],6.23
19,GATTATTTCTAAAAAGTGCATATTTAAAAATCTCCT,7.74

row,Sequence,gcPBM binding intensity (ln)
1,TATTATATTATACATACACACCCATATAATATGTTT [CACACA_site8191],6.85
2,ATTGTTTTGTAATATGAAAAAATTGTGTAATGTGTC [CACACA_negctrl_site1510],6.96
3,AGAAGATTAAACATTGCACACAAAAACATATTTTCT [CACACA_site8072],9.54
4,CAAAGGAAACCTATCTGTACACATATTGGGGGAAAA [XGTACX_site3502],7.27
5,AATATATAAGCTGTTCTATTCAAGAATTATATCTTA [CACACA_negctrl_site270],5.98
6,AAGATTAAACATTGCACACAAAAACATATTTTCTAT [CACACA_site530],9.7
7,AATAAATATATTAAAAGTACACAAATATTATTTAAT [XGTACX_site2482],6.38
8,AAAAAAAATATATTACAAAACTTAGGATCCTAATAT [CACACA_negctrl_site470],6.33
9,CACATAAAATAAGGTGCATGCAAACGAGAAAATAAA [TGCATGCA_site75],8.67
10,ATATATATATAATAATGTACTTATAATAGATGTGTA [XGTACX_site4677],8.48
11,TGCCCTTTGGTTATAACACACATGCACCCGTAAATA [CACACA_site3842],7.63
12,ATTATAATATTTAATTGTACTTGTATTTATTCCAAA [XGTACX_site6417],6.31
13,ATATTTTATATAATAGTGCAAATAATATTAAATAAT,9.78
14,TAATAAAAAGTTGAGGTGCATATAGAGTTCTTCTTT [GTGCAC_site9508],9.32
15,GAACGATATATTATATGTACATATATATATATATAT [XGTACX_site394],9.34
16,AAAAATATAACCGTTACACACAAAATAATATGAGAA [CACACA_site3773],6.7
17,ATATATATATATATTTGTACTTACATTTTTATTTAT [XGTACX_site4551],9
18,TATTTCATCTTTTAAGAAGGTACCCATATGTCATAT [GTGCAC_negctrl_site403],6.41
19,ATAATAAGGTTAAGCACACATATTACATATATAACT [CACACA_site3356],6.42
